Source: the supplement of paper PMC10338343
± gives the standard deviation. The entries are a selection whose mix differs from that of the whole data set.

Tested on: MIWI (PIWIL1) piRISC loaded with L1MC piRNA (30 nt)
Assay: pre-steady-state target cleavage rate (min^-1); MIWI and MILI are mouse PIWI proteins and EfPiwi is from a freshwater sponge; tags in brackets are library labels; higher = faster piRNA-guided slicing of the target
Details: guide: L1MC piRNA 5'p-UAACUAAAUACUAUGCAAGCUGUAGGUCCU
Procedure, shortened: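 A transcribed, DNA-blocked target RNA library (0.1 nM) and 1 nM active affinity-purified piRISC bearing one synthetic guide were incubated in HEPES–potassium acetate buffer at 33 °C for 0–8 or 0–960 min, either with or without 500 nM GTSF1 partner protein. Uncleaved targets were sequenced, normalised to depth and to weakly complementary targets, and pooled over three trials, with k3 capped at 0.0001 min^-1. The pre-steady-state cleavage rate was derived with a burst-and-steady-state fit.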

[1] = auxiliary factor: 500 nM mouse GTSF1
[2] = auxiliary factor: none (no GTSF1)

Sequence | pre-steady-state target cleavage rate [1] | pre-steady-state target cleavage rate [2]
AGGACCUACAGCUUGCAUACAAUUUAGUUA | 0.0176 ± 0.007 | 0.00379 ± 0.0032
UCGACCUACAGCUUGCAUAGUAUAUAGUUA | 1.03 ± 0.051 | 0.0387 ± 0.0099
UCCUGGUACAGCUAGGAUAGUAUUUAGUUA | 0.611 ± 0.084 | 0.00486 ± 0.002
UCCUCCUACAGCUUGCAUACUAUUUAGUAA | 0.152 ± 0.02 | 0.0139 ± 0.0028
UGGACCUACAGCAUGCAUAGUAUUAAGUUA | 0.892 ± 0.066 | 0.015 ± 0.0027
AGGACCUACUGCAUGCAUAGUAUUUAGUUA | 1.3 ± 0.06 | 0.0566 ± 0.01
UCCACCAAGAGCUUGCAUAGUAUUUAGUUA | 0.884 ± 0.095 | 0.0363 ± 0.0078
UGCUGCUACAGCUUGCAUAGUAUUUAGUAA | 0.875 ± 0.084 | 0.0204 ± 0.0041
UCGACCUUCAGCUUGCAUAGUAUUUACUUA | 0.372 ± 0.035 | 0.0338 ± 0.006
UCCACCUACAGCAAGCAUAGUAUUUAGUUA | 1.02 ± 0.048 | 0.00449 ± 0.002
UCCACCUACAGCAUGCAUACUAUUUAGUUA | 0.365 ± 0.029 | 0.0128 ± 0.0025
UCCUGGUACAGCUUGCAAAGAAUUUAGUUA | 0.185 ± 0.039 | 0.00811 ± 0.0032
UCCUGGAUGAGCAUGCAUAGUAUUUAGAUA | 0.252 ± 0.034 | 0.00417 ± 0.0028
UCCUGGAUGUCCUUGCAUAGUAUUUAGUUUA | 0.107 ± 0.014 | 0.00882 ± 0.0024
AGGACCUACAGCUUGCAUAAUAUUUAGUUA | 0.672 ± 0.037 | 0.0527 ± 0.0074
AGCACCUACAGCUUGCAUAGUAUAUAGUUA | 1.12 ± 0.19 | 0.0169 ± 0.0063
UCCUGGAUGUGCAUGCAUAGUAUUUACUUA | 0.0517 ± 0.0099 | 0.0106 ± 0.0044
UGGACCUACAGGUUGCAUAGUAUUUAGUAA | 0.949 ± 0.078 | 0.0304 ± 0.0059
UCGACCUACAGCUUGCAUAGUAUUUAGUGA | 0.887 ± 0.04 | 0.0905 ± 0.019
UCGACCUACAGCUUGCUUAGUAAUUAGUUA | 0.872 ± 0.046 | 0.00981 ± 0.0032
